{
  "source": "the supplement of paper PMC8728848",
  "assay_in_all_cases": "glycan array binding signal (z-score within array); higher = stronger binding",
  "settings_in_all_cases": "glycan notation: IUPAC condensed, linker removed",
  "key": {"[1]": {"target": "Neu5Gc(a2-8)Neu5Ac(a2-3)Gal(b1-4)GlcNAc", "procedure,_shortened": "(§1)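 The binding signal is a Z-score computed within each array and averaged over linkers. Arrays of the same protein sequence at different concentrations or buffers were also averaged together. Data originate from 3228 arrays in the Consortium for Functional Glycomics database, kept only where the protein sequence was available.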"}, "[2]": {"target": "Neu5Gc(a2-8)Neu5Gc(a2-3)Gal(b1-4)GlcNAc", "procedure,_shortened": "as §1"}, "[3]": {"target": "Neu5Gc(a2-8)Neu5Gc(a2-3)Gal(b1-4)GlcNAc(b1-3)Gal(b1-4)GlcNAc", "procedure,_shortened": "as §1"}, "[4]": {"target": "Neu5Gc(a2-8)Neu5Gc(a2-6)Gal(b1-4)GlcNAc", "procedure,_shortened": "as §1"}, "[5]": {"target": "Neu5Gc(b2-6)Gal(b1-4)GlcNAc", "procedure,_shortened": "as §1"}, "[6]": {"target": "Xyl(b1-2)[Man(a1-3)][Man(a1-6)]Man(b1-4)GlcNAc(b1-4)GlcNAc", "procedure,_shortened": "as §1"}, "[7]": {"target": "Xyl(b1-2)[Man(a1-3)][Man(a1-6)]Man(b1-4)GlcNAc(b1-4)[Fuc(a1-3)]GlcNAc", "procedure,_shortened": "as §1"}},
  "note": "Some of the results follow.",
  "data": [
    {"binder": "Banana lectin (Musa acuminata) (protein) MNGAIKVGAWGGNGGSAFDMGPAYRIISVKIFSGDVVDGVDVTFTYYGKTETRHYGGSGGTPHEIVLQEGEYLVGMAGEVANYHGAVVLGKLGFSTNKKAYGPFGNTGGTPFSLPIAAGKISGFFGRGGKFLDAIGVYLEPLEHHHHHH", "values": [
      {"measurement": "glycan array binding signal (z-score)", "setting": "[1]", "value": -0.212},
      {"measurement": "glycan array binding signal (z-score)", "setting": "[2]", "value": -0.22},
      {"measurement": "glycan array binding signal (z-score)", "setting": "[3]", "value": -0.221},
      {"measurement": "glycan array binding signal (z-score)", "setting": "[4]", "value": -0.219},
      {"measurement": "glycan array binding signal (z-score)", "setting": "[5]", "value": -0.244},
      {"measurement": "glycan array binding signal (z-score)", "setting": "[6]", "value": 0.942},
      {"measurement": "glycan array binding signal (z-score)", "setting": "[7]", "value": 0.846}
    ]}
  ]
}
